PubChem BioAssay (Tox21)
Several values for one entry are separate records, joined by “and”; a condition that tells them apart may be missing. Identical values can stand only once. The inconclusive results got no clear call from the source; some entries with a clear call stand among them for comparison. For part of these data: Potencies beside an inconclusive call are fits to weak or partial responses and may not hold up. Activity calls are given as the source filed them. Unless noted, the call rests on the fitted dose curve; in most records, active means well fitted curve in the direction sought with a large enough effect in the repeat runs; inconclusive means weak or mixed curves; inactive means no such curve, though single readings can be large; an effect the other way counts as inactive or inconclusive.

Legend:
[1] = target: Androgen receptor (Homo sapiens) (UniProt P10275); assay: qHTS assay to identify small molecule antagonists of the androgen receptor (AR) signaling pathway using the MDA cell line (AID 743042; further: nearly all actives have a fitted effect of over 55% in size; further: potency means the concentration at half of the fitted maximal effect; on activity change, negative = inhibition: on the % scale 0 is the no-effect control and ±100 the full control effect); settings: MDA-kb2 AR-luc, MMTV luciferase, R1881 antagonist, 16 h; activity change, negative = inhibition: at 70.3 µM (top of the series)
UniProt P10275, sequence (P10275 whole entry, looked up): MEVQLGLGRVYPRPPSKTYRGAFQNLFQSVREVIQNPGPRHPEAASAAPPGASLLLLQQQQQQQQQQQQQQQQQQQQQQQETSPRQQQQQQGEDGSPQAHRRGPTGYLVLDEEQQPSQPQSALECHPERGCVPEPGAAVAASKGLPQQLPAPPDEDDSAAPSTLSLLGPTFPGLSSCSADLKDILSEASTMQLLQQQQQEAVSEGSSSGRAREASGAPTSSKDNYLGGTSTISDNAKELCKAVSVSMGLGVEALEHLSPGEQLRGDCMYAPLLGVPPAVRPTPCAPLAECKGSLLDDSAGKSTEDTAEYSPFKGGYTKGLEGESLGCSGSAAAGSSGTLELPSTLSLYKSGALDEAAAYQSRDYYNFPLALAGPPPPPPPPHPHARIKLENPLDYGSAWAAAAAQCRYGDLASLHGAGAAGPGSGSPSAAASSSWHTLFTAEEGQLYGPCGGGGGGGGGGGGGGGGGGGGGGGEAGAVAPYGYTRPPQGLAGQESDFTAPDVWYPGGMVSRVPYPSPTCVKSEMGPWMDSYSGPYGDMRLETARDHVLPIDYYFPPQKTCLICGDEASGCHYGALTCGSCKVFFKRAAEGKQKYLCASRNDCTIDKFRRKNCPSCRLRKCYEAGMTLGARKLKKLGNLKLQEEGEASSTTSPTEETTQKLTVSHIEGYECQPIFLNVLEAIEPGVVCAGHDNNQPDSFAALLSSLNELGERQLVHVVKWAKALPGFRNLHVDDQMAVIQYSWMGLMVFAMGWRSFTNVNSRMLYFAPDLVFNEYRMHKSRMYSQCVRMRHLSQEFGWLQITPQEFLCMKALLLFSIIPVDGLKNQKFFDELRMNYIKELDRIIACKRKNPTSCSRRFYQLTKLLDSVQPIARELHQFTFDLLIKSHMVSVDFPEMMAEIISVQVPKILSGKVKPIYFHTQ
Method in brief: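 MDA-kb2 breast carcinoma cells carrying MMTV-luciferase (AR/GR responsive) were co-treated with compounds and the agonist R1881 for 16 h at 37C. Inhibition read as ONE-Glo luminescence; CellTiter-Fluor fluorescence measured in parallel for cytotoxicity.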

[2] = qHTS assay to identify small molecule antagonists of the androgen receptor (AR) signaling pathway using the MDA cell line - cell viability counter screen (AID 743041; further: nearly all actives have a fitted effect of over 45% in size; further: potency means the concentration at half of the fitted maximal effect; on viability change, negative = cytotoxic: on the % scale 0 is the no-effect control and ±100 the full control effect); settings: MDA-kb2 viability, CellTiter-Fluor, 16 h, cells co-treated with R1881 androgen agonist; viability change, negative = cytotoxic: at 70.3 µM (top of the series) unless noted
Method in brief: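 Same-well cytotoxicity was assessed by CellTiter-Fluor in MDA-kb2 AR-luc cells after 16 h of compound treatment under R1881 agonism.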

[3] = qHTS assay to identify small molecule antagonists of the thyroid receptor (TR) signaling pathway (AID 743065); settings: GH3.TRE-Luc, T3-stimulated luciferase inhibition, 23.5 h; series mostly up to 70.3 µM; further: potency means the concentration at half of the fitted maximal effect; nearly all actives have a fitted effect of over 55% in size
Method in brief: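 GH3.TRE-Luc rat pituitary cells (two TREs driving luciferase) were dosed with compound, then stimulated with 1 nM T3 (final) for 23.5 h at 37 C. ONE-Glo luminescence was the read-out, with CellTiter-Fluor fluorescence as the cytotoxicity counter-screen.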

[4] = qHTS assay to identify small molecule antagonists of the estrogen receptor alpha (ER-alpha) signaling pathway - cell viability counter screen (AID 743074; calls by dose curve;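 further: HEK293 cells carrying ER-alpha-UAS-bla reporter stimulated with 17beta-estradiol; nearly all actives have a fitted effect of over 45% in size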; further: potency means the concentration at half of the fitted maximal effect); settings: ERalpha-bla HEK293 viability, CellTiter-Glo luminescence, 18 h; series mostly up to 69.4 µM
[5] = target: Estrogen receptor (Homo sapiens) (UniProt P03372); assay: qHTS assay to identify small molecule agonists of the estrogen receptor alpha (ER-alpha) signaling pathway (AID 743075; calls by dose curve;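 further: HEK293 GripTite cells with ER-alpha and UAS-driven beta-lactamase reporter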; further: potency means the concentration at half of the fitted maximal effect; on activation: on the % scale 0 is the no-effect control and ±100 the full control effect); settings: HEK293 ER-alpha-UAS-bla, beta-lactamase FRET ratio, 18 h; series mostly up to 70.1 µM
UniProt P03372, sequence (P03372 whole entry, looked up): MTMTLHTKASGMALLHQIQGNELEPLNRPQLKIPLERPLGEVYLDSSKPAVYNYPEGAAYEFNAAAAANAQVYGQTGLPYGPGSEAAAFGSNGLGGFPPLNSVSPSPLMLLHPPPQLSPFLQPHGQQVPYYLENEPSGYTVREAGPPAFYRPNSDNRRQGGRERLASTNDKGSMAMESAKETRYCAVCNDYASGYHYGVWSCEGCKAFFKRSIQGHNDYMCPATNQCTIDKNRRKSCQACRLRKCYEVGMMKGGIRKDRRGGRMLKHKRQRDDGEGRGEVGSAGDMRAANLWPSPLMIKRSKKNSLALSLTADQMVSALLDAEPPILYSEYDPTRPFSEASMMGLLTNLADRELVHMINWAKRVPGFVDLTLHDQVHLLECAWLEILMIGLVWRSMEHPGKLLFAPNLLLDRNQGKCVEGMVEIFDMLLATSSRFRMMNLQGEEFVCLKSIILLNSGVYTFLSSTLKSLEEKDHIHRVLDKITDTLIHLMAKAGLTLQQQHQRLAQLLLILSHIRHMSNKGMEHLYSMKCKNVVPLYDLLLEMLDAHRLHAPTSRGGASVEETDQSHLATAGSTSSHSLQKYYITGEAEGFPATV

[6] = target: Estrogen receptor (Homo sapiens) (UniProt P03372); assay: qHTS assay to identify small molecule antagonists of the estrogen receptor alpha (ER-alpha) signaling pathway (AID 743069; active means well fitted curve in the direction sought with a large enough effect in the signal ratio in the repeat runs, not every such curve was filed as active; inconclusive means weak or mixed curves, or effect the other way; inactive means no such curve, though single readings can be large or run the other way; the % refers to the signal ratio; further: potency means the concentration at half of the fitted maximal effect); settings: HEK293 ER-alpha-UAS-bla, beta-lactamase ratio, antagonist mode; activity, negative = inhibition: at 69.4 µM (top of the series) unless noted
Method in brief: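 Reporter cells (ER-alpha-bla, HEK293 background) are conditioned overnight in stripped-serum medium (2% charcoal-stripped FBS). Compound and 17beta-estradiol exposure runs 18 hr at 37C, 5% CO2.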

[7] = qHTS assay to identify small molecule antagonists of the thyroid receptor (TR) signaling pathway - cell viability counter screen (AID 743064); settings: GH3.TRE-Luc viability, CellTiter-Fluor, 24 h; further: nearly all actives have a fitted effect of over 50% in size; further: potency means the concentration at half of the fitted maximal effect
Method in brief: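 Rat GH3 pituitary tumor cells stably expressing two TR response elements driving luciferase were plated, rested 4 h, then dosed with library compounds and T3 (1 nM final). After 23.5 h at 37 °C, CellTiter-Fluor was added for 30 min and fluorescence recorded.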

[8] = system: thyroid hormone receptor (rat, GH3 cells); assay: qHTS assay to identify small molecule agonists of the thyroid receptor (TR) signaling pathway (AID 743066; calls by dose curve; further: on the % scale 0 is the no-effect control and ±100 the full control effect); settings: GH3.TRE-Luc cells, TR agonist luciferase, 24 h; activation: at 83.9 µM (top of the series) unless noted
[9] = activity change, negative = cytotoxic: at 70.3 µM (top of the series) unless noted
Tags describe the fitted curve by direction and shape or compound fluorescence and quenching.

CCCCCCCCCCCCCCCCC(=O)O
Potency [1]: inactive

C[C@]12CCC(=O)C=C1C=C[C@@H]1[C@@H]2CC[C@@]2(C)[C@H]1CC[C@@]21CCC(=O)O1
Potency [2]: inactive | Potency [3]: inconclusive: 26.6 µM [inhibitor, partial curve]

C=CC(=O)OCC[N+](C)(C)C
Potency [2]: inactive | Potency [4]: inconclusive: 0.779 µM [rising, full curve, poor fit]

Cc1nc2ccccc2n1Cc1ccc(Cl)cc1
Potency [2]: inconclusive: 9.44 µM [cytotoxic, full curve] | Potency [4]: inconclusive: 1.07 µM [cytotoxic, full curve]

COCC(O)CO (stereo not given)
Potency [2]: inactive | Potency [4]: inactive | Potency [5]: inactive

O=C1CC2(CCCC2)CC(=O)N1CCNCC1COc2ccccc2O1 (stereo not given)
Potency [2]: inconclusive: 33.5 µM [cytotoxic, single point] | Potency [3]: inconclusive: 13.3 µM [inhibitor, partial curve, poor fit] | Potency [4]: active: 21.3 µM

COC(=O)c1cccnc1
Potency [1]: inactive

Oc1ccc(Nc2ccccc2)cc1
Potency [1]: inconclusive: 4.33 µM [inhibitor, full curve] | Potency [6]: inconclusive: 54.9 µM [single point]

CC(=O)N(O)CCCCCNC(=O)CCC(=O)N(O)CCCCCNC(=O)CCC(=O)N(O)CCCCCN
Potency [1]: inconclusive: 0.0011 µM [inhibitor] | Potency [6]: inactive

CC(=O)OCCC(C)C
Potency [7, 9]: inactive

COc1cc2nc(N3CCN(C(=O)C4COc5ccccc5O4)CC3)nc(N)c2cc1OC (stereo not given)
Potency [7, 9]: inconclusive: 33.5 µM [cytotoxic, single point]

CSc1ccc(Oc2ccc(S(N)(=O)=O)cc2CN(C)C)cc1C
Potency [1]: inconclusive: 68.6 µM [inhibitor, single point] | Potency [7, 9]: active: 54.5 µM | activation [8]: inconclusive: -9.95% [phenotype inactive] | Potency [6]: inconclusive: 15.5 µM [inhibitor, full curve] | Potency [4]: inconclusive: 54.9 µM [cytotoxic, partial curve, poor fit]

O=C(c1ccccc1)c1ccccc1
Potency [1]: inactive | activity change, negative = cytotoxic [7, 9]: inconclusive: 33.2% | activity change, negative = cytotoxic ([7]; at 70.3 µM (top of the series)): inactive: -9.89% | activity change, negative = cytotoxic ([7]; at 95 µM (top of the series)): inactive: 1.07%

CCC[C@H](N[C@@H](C)C(=O)N1[C@H](C(=O)O)C[C@@H]2CCCC[C@@H]21)C(=O)OCC
Potency [7, 9]: inconclusive: 16.8 µM [rising, single point]

C=CCCCCCC
Potency [7, 9]: inconclusive: 66.1 µM [rising, single point]

CCCCOc1cc(C(=O)NCCN(CC)CC)c2ccccc2n1
Potency [7, 9]: active: 11.4 µM

C/C=C/c1ccc(OCC)c(O)c1
Potency [7, 9]: inconclusive: 2.73 µM [rising, single point]

CCCn1cnc2c1c(=O)n(CCCCC(C)=O)c(=O)n2C
Potency [7, 9]: inactive

NCCNCCNCCN
Potency [7, 9]: inconclusive: 0.852 µM [rising, partial curve, poor fit]

O=[N+]([O-])c1ccc(CCO)cc1
Potency [7, 9]: inconclusive: 24.4 µM [rising, partial curve, poor fit]

CC(C)(C)C(=O)C(Oc1ccc(Cl)cc1)n1ccnc1 (stereo not given)
Potency [7, 9]: inconclusive: 33.5 µM [cytotoxic, single point]

C[C@]12CCC(=O)C=C1[C@@H]1C[C@@H]1[C@H]1[C@@H]3[C@@H]4C[C@@H]4[C@@]4(CCC(=O)O4)[C@@]3(C)CC[C@@H]12
Potency [7, 9]: inconclusive: 9.44 µM [cytotoxic, full curve, poor fit]

c1ccc(CN(Cc2ccccc2)Cc2ccccc2)cc1
Potency [7, 9]: inactive

CC(C)CC(=O)O
Potency [7, 9]: inconclusive: 59.8 µM [rising, single point]

CC(C)=CCCC(C)C=O (stereo not given)
Potency [7, 9]: inactive

O=C(O)c1ccco1
Potency [7, 9]: inconclusive: 61.1 µM [rising, partial curve]

COc1cc2nc(N3CCN(C(=O)C4CCCO4)CC3)nc(N)c2cc1OC (stereo not given)
Potency [7, 9]: inconclusive: 29.8 µM [rising, partial curve, poor fit]

C[C@@H](N)C(=O)O
Potency [7, 9]: inactive

CN1CCC(=C2c3ccccc3CC(=O)c3sccc32)CC1
Potency [7, 9]: active: 15 µM

CNC(=O)Nc1ccc(Cl)c(Cl)c1
Potency [1]: inactive | Potency [6]: inactive | Potency [5]: inconclusive: 2.19 µM [fluorescent, single point]

O=C1c2ccccc2CCc2ccccc21
Potency [7, 9]: inconclusive: 70.1 µM [rising, partial curve]

CC(=O)N[C@H]1[C@H]([C@H](O)[C@H](O)CO)OC(C(=O)O)=C[C@@H]1N=C(N)N
Potency [1]: inactive | Potency [4]: inconclusive: 4.77 µM [rising, partial curve, poor fit]

COP(=O)(O)OP(=O)(O)OC
Potency [7, 9]: inactive

CCCCCOc1ccc(C2SC(=O)NC2=O)cc1OCC (stereo not given)
Potency [1]: inactive | activation [8]: inconclusive: -9.49% [phenotype inactive]

CN1CCN(c2c(F)cc3c(=O)c(C(=O)O)cn(CCF)c3c2F)CC1
Potency [7, 9]: inactive

COCCOCCOCCOC
Potency [7, 9]: inactive

O=c1[nH]nnc2ccccc12
Potency [7, 9]: inconclusive: 6.11 µM [rising, single point]

C1CCC2OC2C1 (stereo not given)
Potency [7, 9]: inactive

COC(=O)C(C)(C)C
Potency [7, 9]: inactive

CCCC1CCC(=O)O1 (stereo not given)
Potency [7, 9]: inconclusive: 17.2 µM [rising, partial curve, poor fit]

CCCCC[Si](OCC)(OCC)OCC
Potency [7, 9]: inactive

CNCCc1ccccn1
Potency [7, 9]: inactive

O=C(NS(=O)(=O)/C=C/c1cccs1)c1ccc(F)cc1Br
Potency [1]: inactive | Potency [6]: inconclusive: 1.95 µM [activator, full curve] | Potency [5]: inconclusive: 43.7 µM [activator, partial curve]

COc1ccc2c(c1)C(=O)N(CCc1ccc(S(=O)(=O)NC(=O)NC3CCCCC3)cc1)C(=O)C2(C)C
Potency [1]: inactive | Potency [6]: inactive

CC1=C(C)S(=O)(=O)CCS1(=O)=O
Potency [1]: inconclusive: 67.3 µM [inhibitor, single point] and inconclusive: 68.6 µM [inhibitor, single point] | Potency [3]: inconclusive: 75.6 µM [inhibitor, single point] and inconclusive: 68.6 µM [inhibitor, single point] | Potency [6]: inconclusive: 60.5 µM [activator, partial curve, poor fit]

CNCC[C@@H](Oc1ccccc1C)c1ccccc1
activity change, negative = inhibition [1]: inconclusive: -34.6% [inhibitor] | Potency [7, 9]: inconclusive: 11.9 µM [cytotoxic, partial curve] | activation [8]: inconclusive: -5.8% [phenotype inactive] | Potency [6]: inactive

Cn1cnc2c(F)c(Nc3ccc(Br)cc3Cl)c(C(=O)NOCCO)cc21
Potency [1]: inconclusive: 4.73 µM [inhibitor, partial curve, poor fit] | Potency [7, 9]: inconclusive: 23.7 µM [cytotoxic, partial curve, poor fit] | Potency [3]: inconclusive: 0.266 µM [inhibitor, partial curve, poor fit]

C=CCOc1cc(Cl)ccc1C(=O)NCCN(CC)CC
Potency [7, 9]: inconclusive: 15 µM [cytotoxic, partial curve, poor fit]

CC(C)C(=O)OCC(C)(C)C(O)C(C)C (stereo not given)
Potency [7, 9]: inconclusive: 13.7 µM [rising, single point]

CCCC(C)=O
Potency [7, 9]: inconclusive: 24.3 µM [rising, partial curve, poor fit]

CC(=O)Nc1ccc(N)cc1
Potency [7, 9]: inconclusive: 6.2 µM [rising, single point]

COc1ccc(-c2cc(=O)c3c(O)cc(O[C@@H]4O[C@H](CO[C@@H]5O[C@@H](C)[C@H](O)[C@@H](O)[C@H]5O)[C@@H](O)[C@H](O)[C@H]4O)cc3o2)cc1O
Potency [7, 9]: inactive

CN(C)C/C=C(/c1ccc(Br)cc1)c1cccnc1
Potency [7, 9]: active: 10.6 µM

CN1C(C)(C)CC(O)CC1(C)C
Potency [7, 9]: inactive

CC1CCc2cc(F)cc3c(=O)c(C(=O)O)cn1c23 (stereo not given)
Potency [7, 9]: inconclusive: 0.075 µM [rising, full curve, poor fit]

CCc1ccc(O)c(OC)c1
Potency [7, 9]: inactive

C#CCN(C)CCCOc1ccc(Cl)cc1Cl
Potency [7, 9]: inconclusive: 23.7 µM [cytotoxic, partial curve, poor fit]

CCCCCCCCCCCBr
Potency [7, 9]: inactive

CC(=O)/C=C/C1C(C)=CCCC1(C)C (stereo not given)
Potency [7, 9]: inactive

CC1COc2c(N3CCN(C)CC3)c(F)cc3c(=O)c(C(=O)O)cn1c23 (stereo not given)
Potency [7, 9]: inconclusive: 7.5 µM [rising, single point]

CCCCCCCCOC(=O)CCCCCCCCC(=O)OCCCCCCCC
Potency [7, 9]: inactive

NC(Cc1c[nH]c2ccccc12)C(=O)O (stereo not given)
Potency [7, 9]: inconclusive: 0.134 µM [rising, single point]

Cc1cccc(NC(=S)N(C)C)c1
Potency [7, 9]: inactive

CCN(O)CC
Potency [7, 9]: inactive

CC(=O)CCc1ccc(OC(C)=O)cc1
Potency [7, 9]: inactive

O=S(=O)(O)NC1CCCCC1
Potency [7, 9]: inconclusive: 0.583 µM [rising, single point]

N[C@@H](CCC(=O)O)C(=O)O
Potency [7, 9]: inconclusive: 48.6 µM [rising, partial curve]

CCOc1ccc(NC(=O)CC(C)=O)cc1
Potency [7, 9]: inactive

C=Cc1ccc(C)cc1
Potency [7, 9]: inconclusive: 6.29 µM [rising, single point] and inconclusive: 68.6 µM [rising, single point]

CC(C)C/C=C(\C=O)c1ccccc1
Potency [7, 9]: inconclusive: 61.1 µM [cytotoxic, partial curve]

O=C(Cl)c1ccc(F)c(Cl)c1
Potency [7, 9]: inactive

C1=CCC(c2ccccc2)CC1 (stereo not given)
Potency [7, 9]: inconclusive: 27.3 µM [rising, partial curve, poor fit]

COC(=O)Cc1cccc2ccccc12
Potency [7, 9]: inconclusive: 43.3 µM [rising, partial curve]

CCCCC1CCC(=O)O1 (stereo not given)
Potency [7, 9]: inactive

CCCCCCCCCCCCCCCCN
activity change, negative = cytotoxic [7, 9]: inconclusive: 36.9%
